Common to all, as to assay: Primary Screen for Target Class Profiling of Small Molecule Inhibitors of Methyltransferases
Test [1] deals with Glycine N-methyltransferase (Homo sapiens) (UniProt Q14749). As to conditions: purified enzyme, MTase-Glo SAH luminescence; measured here: GNMT inhibition; at 40 µM; stronger effect = lower value. In outline:
(§1)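 Each enzyme was assayed with SAM and its substrate. SAH formation detected by MTase-Glo luminescence; single-point 40 uM screen[…].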

The target of test [2] is Guanidinoacetate N-methyltransferase (Homo sapiens) (UniProt Q14353). As to conditions: purified enzyme, MTase-Glo SAH luminescence; measured here: GAMT inhibition; at 40 µM; stronger effect = lower value. In outline:
as §1

In test [3] the target is Histamine N-methyltransferase (Homo sapiens) (UniProt P50135). As to conditions: purified enzyme, MTase-Glo SAH luminescence; measured here: HNMT inhibition; at 40 µM; stronger effect = lower value. The method, boiled down: as §1
The target in test [4] is Nicotinamide N-methyltransferase (Homo sapiens) (UniProt P40261). Particulars: purified enzyme, MTase-Glo SAH luminescence; measured here: NNMT inhibition; at 40 µM; stronger effect = lower value. The method, boiled down: as §1
Test [5] concerns the target Phenylethanolamine N-methyltransferase (Homo sapiens) (UniProt P11086). As to conditions: purified enzyme, MTase-Glo SAH luminescence; measured here: PNMT inhibition; at 40 µM; stronger effect = lower value. In outline:
as §1

Each structure is given as a SMILES string. Some of the results follow. The main result of the screen is listed elsewhere. These columns were measured beside it and carry no call.
On the % scale 0 is the no-effect control and ±100 the full control effect.

As to `COC(=O)c1ncn2c1C(=O)N(CCc1ccc(OC)c(OC)c1)C(C)(C(=O)NC1CCCCC1)C2` (stereo not drawn), the activity change, negative = inhibition was found to be 4.52% in test [1]; 1.6% in test [2]; 7.75% in test [3]; 10.1% in test [4]; 6.34% in test [5].

For the molecule `COc1ccc2cc1Oc1ccc(cc1)CC1c3cc(c(OC)cc3CCN1C)Oc1c(OC)c(OC)c(OC)c3c1C(C2)N(C)CC3` (stereo not drawn), the activity change, negative = inhibition in test [2] is 13.1%; in test [4] it was -9.92%; in test [5] it was -7.72%.

On to `Cc1cc2c(cc3n2CC(C)(C(=O)NC2CCCCCCC2)N(CCCN2CCCCC2)C3=O)o1` (stereo not drawn), for which the activity change, negative = inhibition in test [1] was determined as 4.57%; in test [2], 0%; in test [3] it was 7.64%; in test [4], 14.2%; in test [5], 5.14%.

As for `C/C=C/C=C/C=C/C(=O)O[C@@H]1C=C2COC(=O)[C@]2(O)[C@@]2(C)CCCC(C)(C)[C@H]12`, the activity change, negative = inhibition in test [1] is -1.06%; in test [2], -23.2%; in test [3], -4.59%; in test [4], -38.9%; in test [5], 0.45%.

With `COc1cc2c(cc1O)[C@H](c1ccc(O[C@@H]3O[C@H](CO)[C@@H](O)[C@H](O)[C@H]3O)c(OC)c1)[C@@H](CO)[C@](O)(CO)C2`, the activity change, negative = inhibition in test [1] was -2.85%; in test [2], 8.53%; in test [3] it was 0.143%; in test [4] it was -5.87%; in test [5], 4.78%.

For `CCCCOc1ccc(S(=O)(=O)n2c(C)nc3ccccc32)cc1`, the activity change, negative = inhibition in test [1] is 5.74%; in test [2], 3.43%; in test [3] it was 5.52%; in test [4] it was -1.13%; in test [5], 9.13%.

On to `CC(CNC(=O)c1nnn2c1c(=O)[nH]c1cc(F)ccc12)c1ccccc1` (stereo not drawn), for which the activity change, negative = inhibition was -11.4% in test [1]; 0% in test [2]; -44.6% in test [3]; -9.62% in test [4]; -0.887% in test [5].

`Cc1ccccc1NC(=O)CSc1nnc2n(CCC(C)C)c(=O)c3ccccc3n12`: the activity change, negative = inhibition in test [1] was -3.67%; in test [2], 0%; in test [3], 4.43%; in test [4], -6.29%; in test [5] it was 2.77%.

Take `NS(=O)(=O)c1ccc(CCNc2nc3c(S(=O)(=O)c4ccccc4)nnn3c3ccccc23)cc1`: the activity change, negative = inhibition was -14.6% in test [1]; 2.09% in test [2]; 2.06% in test [3]; -9.09% in test [4]; -1.67% in test [5].

For `COc1ccc(C(=O)C2CCCN(Cc3csc(C(C)=O)c3)C2)c(OC)c1` (stereo not drawn), the activity change, negative = inhibition in test [1] was -13.8%; in test [2] it was -2.42%; in test [3] it was -3.69%; in test [4], -6.73%; in test [5], -8.88%.

In the case of `Cc1nnc2ccc(N3CCN(C(=O)c4ccncc4)CC3)nn12`, the activity change, negative = inhibition in test [1] is -6.14%; in test [2] it was -3.58%; in test [3], 0.339%; in test [4], -13.1%; in test [5], -11.7%.

Take `Cc1ccc(NC(=O)CSc2nnc3n(Cc4ccc(F)cc4)c(=O)c4ccccc4n23)cc1`: the activity change, negative = inhibition stood at 2.98% in test [1]; 0% in test [2]; 10.3% in test [3]; 3.74% in test [4]; 6.26% in test [5].

Turning to `CC1(C(=O)NC2CCCCCC2)Cn2c(ccc2-c2ccccc2)C(=O)N1CCCN1CCOCC1` (stereo not drawn), the activity change, negative = inhibition in test [1] is 0.551%; in test [2] it was -2.02%; in test [3], -1.14%; in test [4], -5.13%; in test [5], -3.15%.

As to `CCOC(=O)c1cc2n(n1)CC(C)(C(=O)NC1CCC(C)CC1)N(c1cccc(CC)c1)C2=O` (stereo not drawn), the activity change, negative = inhibition in test [1] was -1.55%; in test [2], 3.88%; in test [3] it was -0.024%; in test [4], -6.17%; in test [5], 0.704%.

In the case of `CCCOc1ccc(CN2C(=O)c3c(C(=O)OC)ncn3CC2(C)C(=O)NCc2ccccc2)cc1` (stereo not drawn), the activity change, negative = inhibition in test [1] is 6.97%; in test [2], 0.387%; in test [3], 14.6%; in test [4], 0.525%; in test [5], 10.9%.

For the molecule `CCc1ccccc1NC(=O)Cn1nc2n(CC(C)C)c(=O)c3ccc(C(=O)NC(C)C)cc3n2c1=O`, the activity change, negative = inhibition in test [1] was 5.29%; in test [2], 0%; in test [3], 5.61%; in test [4] it was 1.66%; in test [5], 0.335%.

With `Cc1ccc(O[C@H]2COCC[C@H]2NC(=O)c2ccc(-c3ccn[nH]3)cc2)cn1`, the activity change, negative = inhibition was -2.36% in test [1]; 3.75% in test [2]; 2.25% in test [3]; 0.434% in test [4]; 2.73% in test [5].

With `C[C@]1(OC(=O)/C=C/c2ccccc2)C[C@H](O)[C@]2(O)C=CO[C@@H](O[C@@H]3O[C@H](CO)[C@@H](O)[C@H](O)[C@H]3O)C12` (stereo partly drawn), the activity change, negative = inhibition was 0% in test [1]; 8.39% in test [2]; 9.21% in test [3]; -3.75% in test [4]; 3.89% in test [5].

Turning to `COCC(=O)Nc1ccc([C@H]2OCC(=O)N[C@@H]2CO)cc1`, the activity change, negative = inhibition in test [1] was -3.41%; in test [2], 1.74%; in test [3], 1.08%; in test [4] it was 0.81%; in test [5], 0.313%.

Consider `CCCn1c(=O)c2cc(Cl)ccc2n2c(SCC(=O)Nc3ccccc3CC)nnc12`, for which the activity change, negative = inhibition is -7.89% in test [1]; -0.935% in test [2]; 5.62% in test [3]; -7.11% in test [4]; -1.18% in test [5].

Take `NCCS(=O)O`: the activity change, negative = inhibition is 5.38% in test [1]; 8.36% in test [2]; 9.79% in test [3]; -6.05% in test [4]; 1.19% in test [5].

For `Cc1cc(C)cc(NC(=O)CSc2nnc3n(Cc4ccc(F)cc4)c(=O)c4ccccc4n23)c1`, the activity change, negative = inhibition in test [1] is 4.45%; in test [2] it was 0%; in test [3], 5.02%; in test [4] it was 5.35%; in test [5] it was 5.14%.

Take `CCS(=O)(=O)Nc1ccc(C2(C(=O)NCc3cccc(Cl)c3)CCC2)cc1`: the activity change, negative = inhibition in test [1] is -8.79%; in test [2], -13.2%; in test [3], -7.17%; in test [4] it was -20.6%; in test [5], -18.8%.

With `C=CCCCC(=O)Nc1ccc(NC(=O)C(C)(C)C)c(OC)c1`, the activity change, negative = inhibition in test [1] was -3.33%; in test [2] it was 1.66%; in test [3], -2.01%; in test [4], -2.07%; in test [5], -5.68%.

Turning to `CC(C(=O)O)c1ccc(/C=C2\CCCCC2=O)cc1` (stereo not drawn), the activity change, negative = inhibition in test [1] was -6.98%; in test [2], 1.62%; in test [3] it was 3.55%; in test [4] it was -10.8%; in test [5], 0.346%.

In the case of `Cn1c(=O)n(C)c2cc(S(=O)(=O)N3CCN(c4ccccc4F)CC3)ccc21`, the activity change, negative = inhibition is -4.76% in test [1]; -1.99% in test [2]; -10.8% in test [3]; -15% in test [4]; -10.8% in test [5].

On to `CC1(C)CCC[C@@]2(C)[C@H]1[C@H](O)C=C1COC(=O)[C@@]12O`, for which the activity change, negative = inhibition in test [1] is 0%; in test [2], 9.75%; in test [3] it was 9%; in test [4], -4.14%; in test [5] it was 8.73%.

For the molecule `CN(C)c1cccc(-c2nc(-c3nnn4c3COC(c3ccccc3Cl)C4)no2)c1` (stereo not drawn), the activity change, negative = inhibition in test [1] was -0.038%; in test [2] it was 0.147%; in test [3] it was 0.968%; in test [4], -4.41%; in test [5] it was 14.5%.

As for `CCCCN1C(=O)c2cc(C(=O)Nc3ccc(F)cc3Cl)nn2CC1(C)C(=O)NC1CCCC1` (stereo not drawn), the activity change, negative = inhibition in test [1] is 0.684%; in test [2], 0%; in test [3] it was -16.3%; in test [4], -4.46%; in test [5], -2.09%.

In the case of `O=C(NCCc1ccccc1)c1cc(-c2ccc(F)cc2)nc2n[nH]c(-c3ccccc3)c12`, the activity change, negative = inhibition in test [1] was -3.9%; in test [2] it was 0.313%; in test [3] it was -10.4%; in test [4] it was -6.75%; in test [5], -7.99%.

As for `O=C(c1ccc2c(=O)nc3c(-c4ccc(Cl)cc4)n[nH]n3c2c1)N1CCN(c2ccccc2)CC1`, the activity change, negative = inhibition is -4.44% in test [1]; 4.97% in test [2]; 4.01% in test [3]; 7.55% in test [4]; 3.48% in test [5].

In the case of `CC1(C(=O)NC2CCCCCC2)Cn2c(cc3occc32)C(=O)N1CCc1ccc(Cl)cc1` (stereo not drawn), the activity change, negative = inhibition is -0.086% in test [1]; 3.24% in test [2]; 6.91% in test [3]; -0.336% in test [4]; 1.84% in test [5].

Consider `COc1ccc(C(=O)Cn2nc3n(CCC(C)C)c(=O)c4ccc(C(=O)NCC(C)C)cc4n3c2=O)cc1`, for which the activity change, negative = inhibition was 3.38% in test [1]; 0% in test [2]; 5.9% in test [3]; -1.02% in test [4]; 5.74% in test [5].

As for `OCC1O[C@H]([S-])[C@H](O)[C@@H](O)[C@@H]1O.[Au+]` (stereo partly drawn), the activity change, negative = inhibition in test [1] was -25.2%; in test [2] it was -12%; in test [3], -16.6%; in test [4], -13.9%; in test [5], 0.608%.

`COc1ccc([C@H]2C[C@@H](O)[C@@H](O)[C@@H]2NCc2ccc(OC)nc2)cc1`: the activity change, negative = inhibition in test [1] was 0.944%; in test [2], -9.28%; in test [3], -3.88%; in test [4] it was -10.8%; in test [5], -10%.

For the molecule `COCc1cccc(C(=O)N2CC[C@@]3(O)CCN(S(C)(=O)=O)C[C@H]3C2)n1`, the activity change, negative = inhibition in test [1] is -3.94%; in test [2], -0.052%; in test [3] it was 0.087%; in test [4], -4.55%; in test [5], 8.75%.

On to `O=C1CCN(C(=O)Cc2cccc(F)c2)CCCCCCN1`, for which the activity change, negative = inhibition in test [1] is -0.379%; in test [2], -0.666%; in test [3] it was -1.2%; in test [4], 1.46%; in test [5], -0.736%.

The values above are taken from PubChem BioAssay AID1745853 (National Center for Advancing Translational Sciences (NCATS), 2022).
